From the supplement of paper PMC3334620
Whole data set: some 33,000 sequences, median “E-score (-0.5 to 0.5)” near -0.011, cut for the highest 2% near 0.28. The list shows a part of the results.

target: T1, Gcr1 (UniProt P07261); test: PBM E-score (8-mer binding enrichment) (E-score (-0.5 to 0.5)); higher = stronger / more preferred TF binding; most listed sequences are background and not binding sites; settings: protein concentration: 100 nM; construct: GST-full length
T1 sequence: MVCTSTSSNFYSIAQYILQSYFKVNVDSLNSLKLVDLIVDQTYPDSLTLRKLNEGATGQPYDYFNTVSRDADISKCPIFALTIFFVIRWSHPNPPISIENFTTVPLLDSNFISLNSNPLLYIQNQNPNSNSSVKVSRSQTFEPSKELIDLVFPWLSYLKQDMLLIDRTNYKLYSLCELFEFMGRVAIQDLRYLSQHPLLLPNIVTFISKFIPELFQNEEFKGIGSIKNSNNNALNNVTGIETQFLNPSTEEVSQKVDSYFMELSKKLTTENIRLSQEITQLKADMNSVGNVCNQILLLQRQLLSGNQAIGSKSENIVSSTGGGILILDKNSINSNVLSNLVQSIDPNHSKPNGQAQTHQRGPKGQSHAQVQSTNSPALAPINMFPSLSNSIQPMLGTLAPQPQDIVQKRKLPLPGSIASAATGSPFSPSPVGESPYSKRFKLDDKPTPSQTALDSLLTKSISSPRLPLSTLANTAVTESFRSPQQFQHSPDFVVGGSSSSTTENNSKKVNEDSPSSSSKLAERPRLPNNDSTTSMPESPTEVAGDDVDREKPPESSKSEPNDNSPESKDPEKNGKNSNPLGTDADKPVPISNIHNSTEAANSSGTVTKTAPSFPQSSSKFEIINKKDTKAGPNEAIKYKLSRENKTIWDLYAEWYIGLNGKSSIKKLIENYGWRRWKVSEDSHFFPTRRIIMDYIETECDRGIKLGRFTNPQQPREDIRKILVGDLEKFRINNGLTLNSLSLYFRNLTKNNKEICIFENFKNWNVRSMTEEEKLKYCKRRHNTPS
Method in brief: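 Universal all-10-mer Agilent arrays, double-stranded by primer extension on fresh or once-stripped slides, were probed with about 100-200 nM GST-tagged yeast transcription factors made by PURExpress. Fluorescent anti-GST detected bound protein, and masliner normalised the scans. E-scores from the Universal PBM Analysis Suite were given to each ungapped eight-base word pooled with its reverse complement.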

Row | Sequence | PBM E-score
1 | GAGATAAC | 0.0116
2 | ATAGAGAC | -0.109
3 | ATACAGAC | 0.0369
4 | ATCGGCAG | -0.0842
5 | ACTCACTA | -0.0547
6 | ACAAACGG | -0.00297
7 | AGAGCTCC | -0.238
8 | GTAGGCTA | -0.259
9 | ATACAACA | -0.0317
10 | TAGGTCGA | -0.0729
11 | CCCTTATC | -0.123
12 | GAGATGCC | 0.158
13 | ATCAATAC | -0.217
14 | GACAACGA | -0.00038
15 | CGTTCGTC | -0.107
16 | CATCGTGA | 0.157
17 | ATAGTGGA | 0.376
18 | GGCCCCTA | 0.127
19 | CTTTAGCC | -0.0647
20 | CTGTGAAC | -0.0359
21 | CCGGACCC | 0.0907
22 | CAGTTAAG | 0.00707
23 | ACGGCTAC | -0.0425
24 | AGTTTCAG | -0.0643
25 | ACCGGTCT | -0.212

Row | Sequence | PBM E-score
26 | ATGAAAAA | 0.191
27 | AAGGACGC | 0.256
28 | AAGTGGGT | 0.133
29 | TGAGGAAA | -0.0975
30 | CGTGAAGC | -0.0584
31 | ACCAACGT | 0.0312
32 | AAGAGTAG | 0.0308
33 | ACATTCGC | 0.0746
34 | AAGCGCGT | 0.0945
35 | ATGCTTGA | 0.162
36 | AAAGACCC | -0.0472
37 | ATCAGCAA | -0.194
38 | ACTGGAGA | -0.0302
39 | ATCACAAG | 0.077
40 | TCGATCCA | -0.19
41 | ATGCGCGA | -0.0291
42 | CTCCCGGA | -0.0233
43 | AAGATGCG | 0.198
44 | AACACGAA | 0.206
45 | GACGTGTA | -0.0343
46 | CTCTTTTC | -0.0202
47 | CTGAGAAA | -0.00378
48 | CTCCCCTC | -0.0497
49 | CACGACAA | -0.2
50 | AAGTACAA | -0.0355

Row | Sequence | PBM E-score
51 | ATCCGATA | 0.2
52 | GGGTATCA | -0.125
53 | AGAGGACT | 0.042
54 | AGGTTTAC | -0.00155
55 | CGGATCCA | 0.235
56 | AGTAGTCA | -0.0714
57 | AACACCAC | 0.00522
58 | GCTGAAAA | 0.0407
59 | CTATGAAC | 0.0664
60 | GAAGGCTA | -0.239
61 | AACGAGGG | 0.0827
62 | CTTATCTC | 0.0249
63 | CAGACCTG | -0.308
64 | AGGTTAAT | -0.0118
65 | ACTCAGAA | 0.103
66 | GAGACAAC | -0.107
67 | AAAGCAGT | 0.143
68 | GAGGTGAC | 0.075
69 | CCATCATA | -0.0227
70 | AGCTTACC | -0.301
71 | AATGGCCC | -0.112
72 | CGGAATGC | 0.174
73 | ACGTCACG | -0.0191
74 | AGGCATAC | -0.0777
75 | ACATTCAA | -0.0575

Row | Sequence | PBM E-score
76 | AATAACCT | -0.113
77 | GAGTGTCC | -0.0502
78 | GGTCGTAA | -0.147
79 | CGCACGCC | -0.0905
80 | ATTTGTTC | 0.0973
81 | ACTCTCTG | -0.137
82 | AGGATTAG | 0.0547
83 | CCGGGACA | -0.0293
84 | GCTGTACC | 0.0537
85 | AAGGTGCG | -0.142
86 | ACACTCAA | 0.0334
87 | AAGCTACC | 0.178
88 | TACTCGCA | -0.146
89 | GTTACGGA | 0.0899
90 | GACATCGA | -0.157
91 | ATGTATTA | 0.0636
92 | CGCACCGC | -0.0652
93 | ATCGAGGA | 0.0116
94 | AACTCTTA | -0.0847
95 | GGCCCGAC | -0.214
96 | CGCTCACC | -0.158
97 | GCTATACC | -0.0854
98 | AGCACCTG | 0.102
99 | AACGGTCC | -0.271
100 | AAACAAGC | 0.0265

Row | Sequence | PBM E-score
101 | AATGCCAA | 0.042
102 | ACCTGCCC | -0.2
103 | AGTCCGGG | -0.0176
104 | CGTCGCCA | 0.0608
105 | CTGCCTAC | 0.0139
106 | ATCCAGGG | 0.0864
107 | TAACCGTA | -0.00909
108 | GGACCCAA | 0.17
109 | GCTATTCA | -0.0743
110 | GAGAGAAA | 0.0376
111 | CCCGCGCG | -0.177
112 | CGGGTGAA | 0.0211
113 | GGCCGGAC | -0.222
114 | GCCAGCTA | -0.135
115 | AATACGTG | 0.0495
116 | GACGGATC | -0.0848
117 | AAAACATA | -0.123
118 | AGTATCTC | 0.139
119 | GACTTTGC | -0.106
120 | CGTTCACC | -0.119
121 | AAAACGTA | 0.104
122 | CTAGGATA | -0.0867
123 | ACGCTATG | -0.0359
124 | CCATTCCC | -0.0773
125 | CGTGAACG | 0.0112

Row | Sequence | PBM E-score
126 | ATAAATTG | 0.135
127 | GCTTTAAC | -0.0563
128 | ATTGATTG | 0.16
129 | AAAAATAT | 0.247
130 | GCGATCAC | -0.0279
131 | AGACCAAC | 0.0298
132 | CAAGGATG | -0.0389
133 | CTTGGCGA | -0.1
134 | AAGAGCTA | -0.0799
135 | ACTCGCCC | -0.336
136 | GGCTCAAA | 0.0366
137 | CCAACCTC | -0.144
138 | ACGGCCGG | -0.15
139 | ACATTTGA | 0.101
140 | TAAGCGAA | 0.101
141 | AATCTTGC | -0.0446
142 | CCTGGAGC | 0.173
143 | ACTATTAC | 0.187
144 | TATAACCA | -0.177
145 | CTAAAGTC | -0.117
146 | CTACATAA | 0.0313
147 | GTTGCAAC | 0.00911
148 | CATAGGCC | -0.243
149 | AATGCCGG | 0.0215
150 | TAATTAGA | 0.155

Row | Sequence | PBM E-score
151 | AAGAAACC | 0.0595
152 | ACCATCGA | -0.119
153 | GTCAGCAA | -0.063
154 | AGCCATTA | 0.0444
155 | ACACGTTC | -0.11
156 | TGACATCA | 0.0357
157 | CTTGATTC | 0.133
158 | ACCCAACA | 0.119
159 | CCGGATGC | 0.4
160 | ATACTCTG | -0.141
161 | ATAGTTGA | -0.0782
162 | AAGGAGAA | 0.279
163 | AGAGCTAA | -0.219
164 | ACGAAGAG | 0.0429
165 | AGATCATC | -0.0834
166 | CAGGCAGC | 0.285
167 | ACGCTACT | 0.0916
168 | ATTTATAA | 0.124
169 | CTAGTAAG | -0.0342
170 | CTTGAGTA | -0.0746
171 | ACAGAAGG | -0.0795
172 | ATCTAATC | 0.0385
173 | CATATTGC | -0.0878
174 | CATCGGCC | -0.274
175 | AGGTAGCC | 0.238

Row | Sequence | PBM E-score
176 | GAAGCAGC | 0.24
177 | CATGATGG | -0.0335
178 | ACAGCCTG | -0.19
179 | CGGCACAC | -0.134
180 | TATCTAGA | 0.142
181 | CTGGCAAC | 0.17
182 | AGTCAGAA | 0.0882
183 | ATAGATCA | 0.00234
184 | AGTTAGAC | -0.0255
185 | GGTAGCAA | 0.0758
186 | ATGCAAGC | -0.0754
187 | ATAACACA | 0.0102
188 | ATTGTTGA | -0.0275
189 | AAGTAGTG | 0.0424
190 | GGGCGGAA | -0.127
191 | CCTAGGAG | -0.0611
192 | TAATAGTA | 0.193
193 | ATCGGAAG | 0.193
194 | GTTTATTA | 0.176
195 | GTCCTCCA | 0.0446
196 | ACATCCAA | 0.186
197 | AACGGACT | -0.231
198 | ACGGCACA | -0.148
199 | ACCAAGCG | -0.0948
200 | GTCGGCCA | -0.0681

Row | Sequence | PBM E-score
201 | CCCTAAAA | 0.101
202 | GGATGAAC | -0.232
203 | CCGATCAA | -0.0605
204 | CTAGCGCA | -0.202
205 | CTCGGGAA | 0.104
206 | AGTAACAC | -0.172
207 | ATGGGACC | 0.0745
208 | CCAATTAG | 0.131
209 | TACATGTA | 0.18
210 | CCCCCCAC | -0.0948
211 | CCAGACTA | -0.0971
212 | CTCAGTGC | -0.0638
213 | CGGGTACG | -0.0171
214 | CTTAGCCA | -0.062
215 | CATAACTA | -0.103
216 | GAGGAGAA | 0.0667
217 | CAGGGAGC | 0.165
218 | CACATTTC | 0.0972
219 | GGTGCCTA | 0.134
